{"source": "PubChem BioAssay AID540317", "about": "(National Center for Advancing Translational Sciences (NCATS), 2011)", "note": "The campaign covered roughly 390,000 compounds. About 2,200 (0.56%) were called active. Inconclusive results, whose numbers are uncertain, are shown with a selection of clear calls. Calls come from the whole dose curve; as a rule, active = well fitted inhibition curve with a large enough effect; inconclusive = small, poorly fitted or top-dose-only effect; inactive = no such curve, though single readings can be large or run the other way. Where the call is inconclusive, the potency comes from a doubtful curve fit. Some compounds were tested as several samples or in several runs, with calls that do not always agree. Potency is the fitted concentration of half-maximal effect; tags give direction and shape of the fitted curve.", "data": [{"molecular_target": "Chromobox protein homolog 1 (Homo sapiens) (UniProt P83916)", "sequence (P83916 whole entry, looked up)": "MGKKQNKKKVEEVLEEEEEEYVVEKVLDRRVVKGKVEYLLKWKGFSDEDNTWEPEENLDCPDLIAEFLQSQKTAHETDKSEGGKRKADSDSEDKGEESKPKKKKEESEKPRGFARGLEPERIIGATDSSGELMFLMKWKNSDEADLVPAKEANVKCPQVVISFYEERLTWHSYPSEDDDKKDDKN", "test": "HTS for Inhibitors of HP1-beta Chromodomain Interactions with Methylated Histone Tails; note: nearly all actives have a fitted effect of over 70% in size", "settings": "AlphaScreen HP1-beta / biotin-H3K9me3 peptide binding; series mostly up to 114 µM", "source_text": "As our understanding of epigenetics expands, it is becoming clear that players in this field are potential targets for drug development. This area of epigenetic therapy has established applications for the treatment of cancer and neurological diseases. We have been involved in this field for a number of years and have performed high-throughput screens to identify the first small molecule inhibitors of protein methyltransferases. These methyltransferases target multiple substrates, and thus regulate many arms of an epigenetic pathway. The methylation of different substrates often generates docking sites for effector proteins that harbor binding domains (chromo, tudor, PHD, MBT and ANK repeats). It has been proposed that the binding sites generated for different proteins by these post-translational modifcations mediate downstream effects on chromatin. Consistent with this theory, di- and tri-methylation of histone H3K9 facilitates the binding of heterochromatin protein HP1. The HP1 protein harbors a chromodomain that is responsible for the methyl-dependent interaction between HP1 and lysine 9 of histone H3. HP1 was first described in flies as a heterochromatin associated protein that can regulate gene silencing. It harbors a chromodomain that binds H3K9me3. In addition, it harbors a chromoshadow domain that interacts with a large number of proteins that are involved in heterochromatin formation and gene repression. There are three highly related HP1 isoforms. All three variants are associated with pericentric heterochromatin and it is not clear whether they have specific or redundant functions. MPP8 is also involved in the repression of gene in euchromatic regions (unpublished data) and like HP1 its chromodomain binds H3K9me3. MPP8 harbors an ankyrin repeat region that is likely involved in binding and recruiting interacting proteins with transcriptional repressive function, much like the chromoshadow domain of HP1 does. We hypothesize that by inhibiting specific protein-protein interactions we will be able to develop compounds that block a single arm of an epigenetic pathway. The specificity attained by blocking a single protein-protein interaction will be far greater than that attained by blocking the enzyme that regulates one of many interactions. Low-affinity protein-protein interactions (Kd in the single- to double-digit micromolar range) such as those discussed here have been very difficult to assay by traditional techniques such as fluorescence polarization or fluorescence resonance energy transfer. We have developed a sensitive chemiluminescence-based assay (Quinn, et al. 2009), which serves as the starting point for this project. The following is a validation assay to identify lead compounds that can block methyl-dependent protein-protein interactions (specifically HP1-beta), which can be used as probes to analyze these methyl-driven interactions and perhaps even developed into targeted epigenetic therapies. NIH Chemical Genomics Center [NCGC] NIH Molecular Libraries Probe Centers Network [MLPCN] MLPCN Grant: DA031087 Assay Submitter (PI): Mark Bedford, University of Texas, Medical Anderson Cancer Center, TX\nTo each well, 2 uL of HP1-beta protein (final 50 nM) and 1 uL biotinylated histone peptide trimethylated at Lys9 [b-H3(1-18)K9me3] (final 50 nM) was added in 1x PBS buffer, pH 7.4, containing 0.01% Tween-20 using a nanoliter dispenser. Formation of a protein-peptide complex proceeded at room temperature for 30 min. A Kalypsys pin-tool was employed to transfer 23 nL of library compound solution in DMSO to each well. Aurintricarboxylic acid (ATA) was used as an intraplate control with a 12-point titration in duplicate. Following a 30 min incubation of the protein-peptide complex with compounds at room temperature, a mixture of 40 ug/mL each streptavidin-coated donor and nickel chelate acceptor AlphaScreen beads (final 10 ug/mL) was added in a 1 uL dispense for a final volume of 4 uL. […]", "values": [{"compound": "CCOc1cc(C(=O)Nc2cccc3cccnc23)cc(OCC)c1OCC", "Potency": "inactive"}, {"compound": "Cc1ccc(S(=O)(=O)/N=C(/Sc2ccccc2C(=O)O)c2ccccc2)cc1", "Potency": "active: 22.4 µM"}, {"compound": "CC(C)(C)c1nnc2sc(SC/C(O)=C(\\C#N)c3nc4ccccc4[nH]3)nn2c1=O", "Potency": "inconclusive: 31.6 µM [inhibitor, single point]"}, {"compound": "CC1=C/C(=N\\OS(=O)(=O)c2ccccc2)C(C(C)C)=CC1=O", "Potency": "inconclusive: 15.8 µM [inhibitor, full curve, poor fit]"}, {"compound": "CCCc1cc(=O)[nH]c(Nc2ccc(N3CCCCC3)cc2)n1", "Potency": "inconclusive: 15.8 µM [inhibitor, partial curve, poor fit]"}, {"compound": "CC1=NN(c2ccccc2C(=O)O)C(=O)C1N=Nc1ccccc1", "note": "(stereo not drawn)", "Potency": "inconclusive: 50.1 µM [inhibitor, partial curve]"}, {"compound": "O=C(NCc1ccccc1)c1ccc2c(=O)[nH]c3c(C(=O)NCC4CCCO4)sc(=S)n3c2c1", "note": "(stereo not drawn)", "Potency": "inconclusive: 28.2 µM [inhibitor, full curve]"}, {"compound": "Cc1ccc(S(=O)(=O)N/N=C\\c2ccc(C)o2)cc1", "Potency": "inactive"}, {"compound": "CCc1nnc(NC(=O)CN2CCOCC2)s1", "Potency": "inactive"}, {"compound": "O=C(Nc1cccc(C(F)(F)F)c1)N1CC2CCCN2c2ccccc21", "note": "(stereo not drawn)", "Potency": "inconclusive: 50.1 µM [inhibitor, partial curve]"}, {"compound": "CCN(CC)CC(=O)NN(Cc1ccccc1)c1ccccc1", "Potency": "inconclusive: 56.2 µM [inhibitor, partial curve, poor fit]"}, {"compound": "CCCS(=O)(=O)N1CCN(Cc2ccc([N+](=O)[O-])cc2)CC1", "Potency": "inconclusive: 15.8 µM [inhibitor, partial curve, poor fit]"}, {"compound": "Cc1ccccc1CNC(=O)c1oc2c(c1C)-c1[nH]ncc1CC2", "Potency": "inactive"}, {"compound": "CCCCN(C)C(=O)C1CCN(Cc2cccnc2)CC1", "Potency": "inconclusive: 56.2 µM [inhibitor, partial curve, poor fit]"}, {"compound": "CSc1nc(-c2ccco2)nn1C(=O)c1ccc(C)cc1", "Potency": "inactive"}, {"compound": "Cc1ccc(CC(=O)NCc2ccc(Cl)cc2)cc1", "Potency": "inconclusive: 8.91 µM [inhibitor, full curve]"}, {"compound": "O=C(Cc1ccccc1[N+](=O)[O-])NCc1ccc2c(c1)OCO2", "Potency": "inactive"}, {"compound": "Cc1ccc(S(=O)(=O)Nc2cc3c(cc2NCc2ccccc2)n(C)c(=O)n3C)cc1", "Potency": "inconclusive: 39.8 µM [inhibitor, partial curve]"}, {"compound": "Cc1cccc(NC(=O)CN2C(=O)N/C(=C\\c3ccccc3OCc3ccc(C(=O)O)cc3)C2=O)c1", "Potency": "inconclusive: 89.1 µM [inhibitor, partial curve, poor fit]"}, {"compound": "O=C(Nc1nc(-c2cccs2)cs1)C1=COCCO1", "Potency": "inconclusive: 8.91 µM [inhibitor, partial curve, poor fit]"}, {"compound": "CCN(C(=O)c1ccc2c(=O)n3c(nc2c1)CCCCC3)c1ccccc1C", "Potency": "inactive"}, {"compound": "Cc1cccc(NC(=O)CNC(=O)CCc2nc3sc4c(c3c(=O)[nH]2)CCCC4)c1C", "Potency": "inconclusive: 50.1 µM [inhibitor, partial curve]"}, {"compound": "Cc1cccc(-c2nnn3c2nc(NCc2ccc4c(c2)OCO4)c2ccccc23)c1", "Potency": "inactive"}, {"compound": "COc1cccc2c1ncc1c(-c3ccc(C)cc3)nn(-c3ccc(F)cc3)c12", "Potency": "inactive"}, {"compound": "CCc1ccc([C@H]2C(C(=O)O)=C[C@@H](CC3CCCC3)N2S(=O)(=O)c2ccc(C)cc2)cc1", "Potency": "inactive"}, {"compound": "CCCOc1ccc(/C=N/NC(=S)Nc2ccccc2[N+](=O)[O-])c(O)c1", "Potency": "inconclusive: 39.8 µM [inhibitor, partial curve, poor fit]"}, {"compound": "CCOC(=O)COc1ccc(C2NC(C(=O)O)CS2)cc1", "note": "(stereo not drawn)", "Potency": "inconclusive: 56.2 µM [inhibitor, partial curve, poor fit]"}, {"compound": "CCSC1=NC(=O)/C(=C2/C=Cc3ccccc3N2CC)S1", "Potency": "inconclusive: 17.8 µM [inhibitor, full curve, poor fit]"}, {"compound": "O=C(N/N=C/C=C/c1ccco1)c1ccncc1", "Potency": "inconclusive: 44.7 µM [inhibitor, partial curve]"}, {"compound": "Nc1nc2ncc(C(=O)c3cc(Cl)cc(Cl)c3O)cc2s1", "Potency": "inconclusive: 50.1 µM [inhibitor, partial curve, poor fit]"}, {"compound": "COc1cccc2c(C)nc(Nc3nc(CSc4nnc(C)s4)cc(=O)[nH]3)nc12", "Potency": "inconclusive: 31.6 µM [inhibitor, single point]"}, {"compound": "Cc1[nH]n(-c2ccccc2)c(=O)c1N=Nc1ccc2c(c1)OCCO2", "Potency": "inconclusive: 39.8 µM [inhibitor, partial curve, poor fit]"}, {"compound": "O=C(NCCc1csc(-c2cccc(F)c2)n1)c1cccs1", "Potency": "inactive"}, {"compound": "COc1cccc(CNS(=O)(=O)c2c(C(=O)N3CCCCCC3)c(C)n(C)c2C)c1", "Potency": "inactive"}, {"compound": "O=C(Cc1ccccc1)Nc1sc2c(c1C(=O)Nc1ccc(Cl)cc1)CCCC2", "Potency": "inconclusive: 3.55 µM [inhibitor, full curve, poor fit]"}, {"compound": "COc1ccccc1OCCCCCCN1CCOCC1", "Potency": "inconclusive: 44.7 µM [inhibitor, partial curve]"}, {"compound": "CC1=CN2C(=N)/C(=C/c3ccc([N+](=O)[O-])o3)C(=O)N=C2S1", "Potency": "inconclusive: 89.1 µM [inhibitor, partial curve, poor fit]"}, {"compound": "O=C1CN(C(=O)CNCc2ccccc2)c2ccccc2N1", "Potency": "inconclusive: 50.1 µM [inhibitor, partial curve]"}, {"compound": "CCOC(=O)c1ccc(N2CSC3=C(C#N)C(c4cccs4)CC(=O)N3C2)cc1", "note": "(stereo not drawn)", "Potency": "inconclusive: 39.8 µM [inhibitor, partial curve]"}, {"compound": "O=C(Oc1ccc(C(=S)N2CCCCC2)cc1)c1ccccc1", "Potency": "inconclusive: 35.5 µM [inhibitor, partial curve]"}, {"compound": "COc1ccc(N/N=C(/C(C)=O)N2CCCc3ccccc32)cc1", "Potency": "inconclusive: 50.1 µM [inhibitor, partial curve, poor fit]"}, {"compound": "COc1cccc(-n2ccnc2SCC(=O)Nc2ccccc2)c1", "Potency": "inconclusive: 5.62 µM [inhibitor, full curve, poor fit]"}, {"compound": "C=CCNCCCCOc1ccc(C)cc1[N+](=O)[O-]", "Potency": "active: 17.8 µM"}]}]}
